Reference: patent publication US20250313611A1 (VIB VZW, published 2025)

How the values were obtained:
Assay in all cases: cell-based or functional assay
[1] = biological target: spike protein of authentic SARS-COV-2 Delta virus (SARS-CoV-2 Delta)
[2] = biological target: spike protein of authentic SARS-COV-2 Omicron BA.1 virus (SARS-CoV-2 Omicron BA.1)
[3] = biological target: T1, spike protein of authentic SARS-COV-2 Omicron BA.2 virus (SARS-CoV-2 Omicron BA.2)
[4] = biological target: T2, spike protein of authentic SARS-COV-2 Omicron BA.5 virus (SARS-CoV-2 Omicron BA.5)
[5] = biological target: T1, spike protein of authentic SARS-COV-2 …; remark: listed apart in the source
[6] = biological target: T2, spike protein of authentic SARS-COV-2 …; remark: listed apart in the source
[7] = biological target: T1, spike protein of authentic SARS-COV-2 …; remark: listed apart in the source
[8] = biological target: T2, spike protein of authentic SARS-COV-2 …; remark: listed apart in the source

B1: huR3DC23-Fc_LS (Fc fusion)
chain: DVQLVESGGGLVQPGGSLRLSCAVSGRIFSTYTMGWFRQAPGKEREFVAAVRWGAGTIYYADSVKGRFTISRDNAKNTVYLQMNSLRPEDTAVYYCGAAYVSKANYGSLWYQDSRRYDYWGQGTLVTVSSGGGGSGGGGS[left out - human IgG1 Fc with changes]
GM IC50 in ng/mL (GSD factor), live virus microneutralisation [1]: 3.6 ng/mL
GM IC50 in ng/mL (GSD factor), live virus microneutralisation [2]: 3.8 ng/mL
GM IC50 in ng/mL (GSD factor), live virus microneutralisation [3]: 2 ng/mL
GM IC50 in ng/mL (GSD factor), live virus microneutralisation [4]: 3.6 ng/mL
geometric mean IC50 (ng/mL), live virus microneutralisation [5]: 2.8 ng/mL
geometric mean IC50 (ng/mL), live virus microneutralisation [6]: 3.6 ng/mL
geometric mean IC50 (ng/mL), live virus method [7]: 2.8 ng/mL
geometric mean IC50 (ng/mL), live virus method [8]: 3.6 ng/mL
